From patent US9782491B2, “Peptide conjugates for treating pain” (priority 2012, dated 2017)
Ends that are not written are not given here.

Biological target: CRMP2 (Homo sapiens, UniProt Q16555)
Experiment: Isothermal titration calorimetry binding to CRMP2
Excerpt: EXAMPLE. […] L1 and [2014-2028]

Sequence: NSSFPSIHCSSWSEE [Ct-dis]
- difference in binding affinities between L1 and Ct-dis binding to CRMP2: 5 to 7 fold
